The values that follow are results of earlier work, collected in US20220226297A1 (Animal Ethics Pty Ltd, priority 2019, published 2022).

For the data set the following is noted: in vivo.

In the case of `CCCCN1CCCCC1C(=O)Nc1c(C)cccc1C` (stereo not shown) [bupivacaine], the “duration of anaesthesia, up to” value is 6 to 12 h.
